The results in this text go back to ChEMBL document CHEMBL4888484, “Replenishing the malaria drug discovery pipeline: Screening and hit evaluation of the MMV Hit Generation Library 1 (HGL1) against asexual blood stage Plasmodium falciparum ,using a nano luciferase reporter read-out” (2022).

Among all 150,000 compounds or so, about 540 (0.36%) showed an effect of 50% or more. Some of the results follow.

This assay deals with Plasmodium falciparum. Briefly: Primary screen in NF54 nanoGlo assay, in single point, at 2uM, 72h; a lower Z score goes with more inhibition. The class given is functional, Erythrocyte. The following applies: timepoint 72 hour.
`CC(C)n1ncc2c1[C@@H](NCc1ccc(O)cc1)CCC2`: the “% Inhibition” value is listed as -8% and the Z score is 0.86.

Turning to `O=C(NCc1ccccc1)C1CCN(c2nccn3ccnc23)CC1`, the “% Inhibition” value was -6% and the Z score stood at 1.01.

In the case of `Cn1c(CN2CCC[C@H](C(=O)c3ccc4c(c3)OCO4)C2)nc2ccccc21`, the “% Inhibition” value was found to be 0% and the Z score was 0.

As to `c1ccc(Oc2ccc(CN3CCC(c4nnc[nH]4)CC3)o2)cc1`, the “% Inhibition” value is given as -5% and the Z score is reported as 0.69.

On to `CCc1cc2c(cc1[C@H](C)N)C(C)(C)CCC2(C)C`, for which the “% Inhibition” value is reported as 6% and the Z score is reported as -0.87.

Take `COC(=O)[C@@H]1C[C@@H](O)CN1CCc1ccncc1`: the “% Inhibition” value is listed as -5% and the Z score turned out to be 0.66.

For the molecule `O=C(Cc1ccc[nH]c1=O)c1ccc(F)cc1`, the “% Inhibition” value came to 3% and the Z score is given as -0.35.

In the case of `Cc1c(C(=O)N2CCC(C)CC2)c(C(F)(F)F)nn1C1CCN(C)CC1`, the “% Inhibition” value is -9% and the Z score was 1.75.

In the case of `O=C(c1cc2c(s1)CC[C@H](C(=O)N1CCCCC1)C2)N1CCCC1`, the “% Inhibition” value came to 28% and the Z score is listed as -3.22.

For the molecule `Cc1sc(NC(=O)C(C)(C)C)c(C(=O)O)c1C`, the “% Inhibition” value is reported as -5% and the Z score is recorded as 0.75.

As for `CCCCCOc1ccc(NC(=O)N2CCC3(CC2)CN(C)CCN3C)cc1`, the “% Inhibition” value was -10% and the Z score is given as 1.93.

With `Cn1c(C(F)(F)F)nn(Cc2csc(-c3ccccc3)n2)c1=O`, the “% Inhibition” value is on record as -3% and the Z score is 0.35.

For the molecule `CCCn1ncc(CN2CCc3nc(NC)nc(C(=O)N4CCCC4)c3C2)c1C`, the “% Inhibition” value was -7% and the Z score came out at 1.06.

As to `COc1ccc(-c2cn3c(C(=O)N4CCC[C@H]4C(N)=O)csc3n2)cc1F`, the “% Inhibition” value was 4% and the Z score is reported as -0.71.

For the molecule `CN(C)C(=O)c1ccc2c(c1)N(CC(=O)N1CCc3ccccc3C1)C(=O)CO2`, the “% Inhibition” value turned out to be 16% and the Z score is recorded as -2.12.

Take `Cn1cncc1C(=O)Nc1ccnn1C1CCCC1`: the “% Inhibition” value is listed as -16% and the Z score is given as 3.07.

With `O=C(C[C@@H]1C=CCC1)Nc1cncc2ccccc12`, the “% Inhibition” value is reported as -8% and the Z score was found to be 0.79.

In the case of `O=C(CN1C(c2ccc(Cl)cc2)=C[C@@H](c2ccc(F)cc2)n2nnnc21)NCc1ccccc1`, the “% Inhibition” value worked out at 3% and the Z score is recorded as -0.35.

Turning to `CC(C)(F)c1nc(-c2ccc(N3CCCOC3=O)cc2)no1`, the “% Inhibition” value was -17% and the Z score is 3.24.

For the molecule `CCC(C)NC(=O)C(C)NC1CCCC(C(F)(F)F)C1` (stereo unspecified), the “% Inhibition” value is reported as -4% and the Z score turned out to be 0.38.

For `O=C1CN(Cc2nc(-c3cccc(Br)c3)c[nH]2)CCN1C1CC1`, the “% Inhibition” value was -5% and the Z score is given as 0.83.

As to `O=C(Nc1ccc2[nH]c(=O)[nH]c2c1)[C@@H]1CC=CCC1`, the “% Inhibition” value is reported as -8% and the Z score amounted to 1.07.

For the molecule `CCNc1nc(NCC)nc(NS(=O)(=O)c2ccc(N)cc2)n1`, the “% Inhibition” value is reported as -28% and the Z score stood at 3.31.

In the case of `CCn1cc(C(=O)Nc2ccc(COC3CCCC3)cc2)c(=O)c2cc(Cl)ccc21`, the “% Inhibition” value turned out to be 10% and the Z score is given as -1.15.

`CNC(=O)Cc1noc(-c2ccc(-n3ccnc3)cc2)n1`: the “% Inhibition” value is -4% and the Z score is listed as 0.67.

In the case of `O=C(Nc1nc2n(n1)CCCC2)N1CCC[C@H]1c1cccs1`, the “% Inhibition” value is -5% and the Z score is reported as 0.88.

With `CCCc1noc(-c2ccn3c(CC(=O)N4CCCC4)nnc3c2)n1`, the “% Inhibition” value is -3% and the Z score amounted to 0.52.

In the case of `CC(C)c1cc([C@@H]2CCCN2Cc2cc(F)ccc2F)on1`, the “% Inhibition” value is -9% and the Z score came out at 1.18.

`Cn1nc2nc(N3CCC(N4CCCCC4)CC3)nc(-c3cccc(Oc4ccccc4)c3)c2c1N`: the “% Inhibition” value worked out at 19% and the Z score is -2.46.

As to `O=C(Cn1cnc2ccccc2c1=O)Nc1ncccc1O`, the “% Inhibition” value is -7% and the Z score is recorded as 1.42.

Consider `Cc1ccc(C(=O)NCCNC(=O)c2ccc(C)o2)o1`, for which the “% Inhibition” value was -22% and the Z score stood at 2.83.

Turning to `CC(NC(=O)N1CCOCC1C1CCCO1)c1cccc(F)c1F` (stereo unspecified), the “% Inhibition” value is listed as -10% and the Z score is 1.77.

In the case of `O=C(NC[C@H]1Cc2ccccc2CN1)c1c[nH]c(C2CC2)n1`, the “% Inhibition” value was -4% and the Z score is 0.76.

On to `O=C(N[C@@H](Cc1ccccc1)C(=O)O)c1coc(Br)c1`, for which the “% Inhibition” value was -15% and the Z score is 2.21.

With `Cc1cc(CNC(=O)COCc2nc(-c3ccccc3)no2)no1`, the “% Inhibition” value is -6% and the Z score amounted to 0.81.

For `CC(=O)N[C@H]1CC[C@]2(C)CC[C@@H]([C@H](C)C(=O)NCc3cccs3)[C@H](O)[C@H]2[C@@H]1C`, the “% Inhibition” value is -7% and the Z score is reported as 1.1.

With `Cc1cc(C)c2[nH]c(C(=O)N3CC[C@H](N(C)C)C3)c(C)c2c1`, the “% Inhibition” value is recorded as -10% and the Z score stood at 1.18.

As to `Cc1nn(C)cc1-c1csc(C2(N)CCCC2)n1`, the “% Inhibition” value was -2% and the Z score was determined as 0.22.

As to `O=S(=O)(c1ccc(Cl)cc1)N1CCC2(CC1)NCCN=C2NC1CCCC1`, the “% Inhibition” value was -4% and the Z score is recorded as 0.56.

Take `CCc1cnc(C)nc1N1CC[C@@](O)(C2CCOCC2)[C@H](C)C1`: the “% Inhibition” value is on record as -4% and the Z score is 0.76.

As for `CC1CN(C(=O)Cn2cnc3ccccc3c2=O)CC(C)O1` (stereo unspecified), the “% Inhibition” value was -4% and the Z score came out at 0.63.

Consider `Cc1ccc(OCC(=O)Nc2ccc3oc(-c4cccc5ccccc45)nc3c2)c(-n2cnnc2)c1`, for which the “% Inhibition” value is reported as -2% and the Z score stood at 0.21.

`Cc1ccc(CNC(C)(C)CO)c(C)c1`: the “% Inhibition” value is recorded as -8% and the Z score turned out to be 1.14.
